In PubChem BioAssay AID485281 (National Center for Advancing Translational Sciences (NCATS), 2010):
Values joined by “and” are separate entries in the source; they are usually repeats but may differ in a detail not shown here. Equal values may be shown once. Screen size: about 350,000 compounds; about 260 (0.074%) were called active. Inconclusive means that the source gave no clear call. Such entries were picked first, then a sample of the others. Calls follow the shape of the dose curve; as a rule, active = well fitted inhibition curve with a large enough effect; inconclusive = small, poorly fitted or top-dose-only effect; inactive = no such curve, though single readings can be large or run the other way. Where the call is inconclusive, the potency comes from a doubtful curve fit.

target: Ferritin light chain (Equus caballus) (UniProt P02791); assay: qHTS Assay for Identification of Novel General Anesthetics; conditions: apoferritin/1-aminoanthracene competitive binding, fluorescence; series mostly up to 77.5 µM; also: nearly all actives have a fitted effect of over 20% in size
How it was run: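 Horse-spleen apoferritin (10 uM) was mixed with 50% saturated 1-aminoanthracene in PBS, exposed to compounds for 10 min at room temperature, and read for fluorescence (ex 380 nm, em 535 nm). Competitive displacement was fitted with a four-parameter Hill equation.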
Potency is read from the fitted curve at half-maximal effect; tags tell the direction and shape of the fitted curve.

Sequence of UniProt P02791 (P02791 whole entry, looked up): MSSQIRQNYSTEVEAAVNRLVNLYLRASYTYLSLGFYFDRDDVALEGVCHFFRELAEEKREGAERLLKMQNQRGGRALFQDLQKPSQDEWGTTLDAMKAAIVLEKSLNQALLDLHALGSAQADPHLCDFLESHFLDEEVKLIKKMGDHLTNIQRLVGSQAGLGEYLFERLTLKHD

Potency, inconclusive:
Cc1ccc(-n2ncc(C(=O)NCCN3CCCC3)c2C2CCN(C(=O)OC(C)(C)C)CC2)cc1C 17.8 µM [inhibitor, partial curve], Cc1cc(C(=O)NCCCN2CCN(c3cc(Cl)ccc3C)CC2)n(-c2ccccc2)n1 31.6 µM [inhibitor, partial curve], O=C(c1cc(COc2cccc(C(F)(F)F)c2)on1)N1CCSCC1 39.8 µM [inhibitor, single point], COc1ccccc1/C=C/C(=O)OCC(=O)Nc1ccc(Cl)cn1 56.2 µM [inhibitor, single point], COc1ccc(OC)c2sc(N3CCN(C(=O)CCS(=O)(=O)c4ccc(F)cc4)CC3)nc12 25.1 µM [inhibitor, partial curve], Nc1ccc2c(c1)OC1(CCCCC1)O2 12.6 µM [inhibitor, partial curve], Cc1cc(/C=N/Nc2nc(N)ncc2[N+](=O)[O-])c(C)n1-c1cccc(C(F)(F)F)c1 50.1 µM [inhibitor, single point], Cc1cc2cc(CNC(=O)c3ccc(S(=O)(=O)N4CCCC4)cc3)ccc2n1C 44.7 µM [inhibitor, single point], Cc1nc2nc(SCC(=O)NC3CCCCC3)nn2c(C)c1Cc1ccccc1Cl 25.1 µM [inhibitor, partial curve], O=C(CN(C(=O)Cn1nnc(-c2ccc(F)cc2)n1)c1ccc(F)c(Cl)c1)NCC1CCCO1 (stereo not drawn) 28.2 µM [inhibitor, single point], Nc1nc(-c2cc(Cl)cc(Cl)c2OC(F)F)cs1 7.94 µM [inhibitor, full curve], CC1CCCN(C(=O)c2ccc3c(c2)OCO3)C1 (stereo not drawn) 22.4 µM [inhibitor, partial curve], Cc1ccccc1CC(=O)c1ccc(O)c(C)c1O 7.08 µM [inhibitor, full curve], Cc1c(C(=O)N2CCOCC2)[nH]c2ccc(OCc3ccccc3)cc12 20 µM [inhibitor, partial curve], Cc1ccc(-c2ccc(=O)n(CC(=O)Nc3ccc4c(c3)OCCO4)n2)cc1 8.91 µM [inhibitor, partial curve], CCOC(=O)CCc1c(C)c2ccc(OC(C)C(=O)OCC)c(C)c2oc1=O (stereo not drawn) 15.8 µM [inhibitor, partial curve], CSc1cccc(NC(=S)N(CCC(C)C)C2CCN(C(C)C)CC2)c1 25.1 µM [inhibitor, partial curve], Cc1ccc(NC(=O)Cc2cccs2)cc1Cl 22.4 µM [inhibitor, partial curve], COCCNc1ccc(N2C(=O)C3CCCCC3C2=O)cc1[N+](=O)[O-] (stereo not drawn) 17.8 µM [inhibitor, partial curve], COc1ccc(CNC(=O)C2CCC(CNS(=O)(=O)c3cccc4cccnc34)CC2)cc1 (stereo not drawn) 44.7 µM [inhibitor, partial curve], Cc1ccc(CCC(=O)Nc2cc(Cl)ccc2Cl)o1 5.62 µM [inhibitor, full curve], CC(C)CCNc1nc2c(c(=O)n(Cc3cccc(F)c3)c(=O)n2C)n1C 25.1 µM [inhibitor, partial curve], Fc1ccc(-c2nn(-c3ccccc3Cl)c3c2cnc2ccccc23)cc1 0.794 µM [inhibitor, full curve, poor fit], O=C1NC(=O)/C(=C/c2ccccc2OCc2ccccc2)S1 20 µM [inhibitor, partial curve], Cc1cccc(OCC(=O)OCC(=O)c2c(N)n(C)c(=O)n(C)c2=O)c1 25.1 µM [inhibitor, partial curve, poor fit], Cc1coc(C)c1C(=O)CC1(O)C(=O)N(Cc2ccccc2)c2ccccc21 (stereo not drawn) 17.8 µM [inhibitor, partial curve], COc1cc(NC(=O)C2=CC(c3cccs3)=NS(=O)(=O)N2C)cc(OC)c1OC 14.1 µM [inhibitor, partial curve], Cc1nc(-c2ccccc2)nc2[nH]c(-c3ccccc3)cc(=O)c12 12.6 µM [inhibitor, single point], Cn1c(=O)oc2cc(S(=O)(=O)N3CCCC(C(=O)NC4CCCc5ccccc54)C3)ccc21 (stereo not drawn) 4.47 µM [inhibitor, full curve, poor fit], COc1ccc(C(=O)N2CCCC(Nc3ccc(C)c(C)c3)C2)cc1F (stereo not drawn) 25.1 µM [inhibitor, partial curve], CCOc1ccc(N(CC)S(=O)(=O)N2CCCC(C(=O)Nc3ccc(C(C)=O)cc3)C2)cc1 (stereo not drawn) 17.8 µM [inhibitor, partial curve], O=C(NC(=S)Nc1ccc(Cl)c(C(=O)O)c1)c1cccc(COc2ccccc2)c1 28.2 µM [inhibitor, partial curve], COc1ccc(CN2C(=O)c3cccnc3C2=O)cc1S(=O)(=O)NC1CCCCC1 28.2 µM [inhibitor, partial curve], CCOc1ccccc1NC(=O)c1nc(SC(C)C)ncc1Cl 39.8 µM [inhibitor, partial curve, poor fit], Cc1ccccc1Nc1c(-c2cc(Br)ccc2F)nc2ccccn12 8.91 µM [inhibitor, single point], O=[N+]([O-])c1cccnc1N1CCC(c2cc(-c3ccc(Cl)cc3)n[nH]2)CC1 39.8 µM [inhibitor, partial curve], O=C(COc1ccc2c(c1)OCO2)NC12CC3CC(CC(C3)C1)C2 35.5 µM [inhibitor, single point], CC1CCc2c(sc3ncnc(NCCCOC(C)C)c23)C1 (stereo not drawn) 50.1 µM [inhibitor, single point], Nc1cccnc1Sc1cc(Cl)cc(Cl)c1 39.8 µM [inhibitor, partial curve], O=C(C[n+]1ccc(-c2cc(C(=O)Nc3cccc(C(F)(F)F)c3)c3ccccc3n2)cc1)c1cccc([N+](=O)[O-])c1 25.1 µM [inhibitor, partial curve], CCn1c(COc2ccc(Cl)cc2)nnc1SCC(=O)Nc1ccc2c(c1)OCO2 11.2 µM [inhibitor, partial curve], O=S(Cc1ccc(Cl)cc1)CC(O)COc1ccc(Cl)cc1 (stereo not drawn) 14.1 µM [inhibitor, partial curve], CCN(c1ccccc1)S(=O)(=O)c1ccc(NC(=O)c2nc(SC)ncc2Cl)cc1 35.5 µM [inhibitor, partial curve], C=CC[C@@H]1/C=C(\C)C[C@H](C)C[C@H](OC)[C@H]2O[C@@](O)(C(=O)C(=O)N3CCCC[C@H]3C(=O)O[C@H](/C(C)=C/[C@@H]3CC[C@@H](O)[C@H](OC)C3)[C@H](C)[C@@H](O)CC1=O)[C@H](C)C[C@@H]2OC 31.6 µM [inhibitor, single point] and 15.8 µM [inhibitor, partial curve], COc1ccccc1N1CCN(c2nc3c(C)cccn3c(=O)c2C=O)CC1 31.6 µM [inhibitor, partial curve], O=S(=O)(Nc1ccc2c3c(cccc13)CC2)c1ccc(F)cc1 50.1 µM [inhibitor, partial curve], COc1ccc2c(CC(=O)OCC(=O)Nc3cc(C)c(C)cc3[N+](=O)[O-])coc2c1 39.8 µM [inhibitor, partial curve], C=CCN1N=C(c2ccc(Cl)s2)CSC1=O 39.8 µM [inhibitor, partial curve]

Potency, inactive:
CCn1cc(C(=O)O)c(=O)c2cc(F)c(N/N=C/c3ccccc3)cc21, O=C(/C=C/c1ccco1)Nc1nc(-c2ccccc2)cs1, Cc1cccc(NC(=O)CSc2nc(C)c(CC(=O)c3ccc(Br)cc3)c(C)c2C#N)c1C, COC(=O)C1=C(C(=O)OC)[C@@H]2N(C)c3ccc(OC)cc3[C@@]23C[C@@H](C(=O)OC)N(S(=O)(=O)c2ccc([N+](=O)[O-])cc2)C3=N1, CCC(C)N1C(=O)c2ccccc2C1C(=O)NC1CCCCCC1 (stereo not drawn), CCc1ccc(-n2c(=O)c3c4c(sc3n(CC(=O)N3CCCCC3CC)c2=O)CCC4)cc1 (stereo not drawn), CCOC(=O)CCc1c(C)n[nH]c1C, CN(CC(=O)N1CCCCCC1)S(=O)(=O)c1ccc(F)cc1, C/C(=N\Nc1nccnc1Cl)c1ccc(Cl)c(Cl)c1, O=C(Nc1nnc(C2CC2)o1)c1ccc(S(=O)(=O)N2CCCc3ccccc32)cc1, O=C(NC(NC(=S)Nc1ccccc1)C(Cl)(Cl)Cl)c1cccc(Cl)c1 (stereo not drawn), CCN(CC)c1ccc(NC(=O)C2CCN(c3nnc(-n4cccc4)s3)CC2)c(C)c1, CCCCCOc1ccc(Br)cc1/C(C)=N/NC1=NCCN1, O=C(NC1CC(=O)N(c2ccc(F)cc2)C1)c1ccc(S(=O)(=O)N2CCCCC2)cc1 (stereo not drawn), N#Cc1c(N)nc(SCc2ccncc2)c(C#N)c1-c1cccs1
